Reference: PubChem BioAssay AID463173 (ICCB-Longwood Screening Facility, Harvard Medical School, 2010)
Among all 52,000 compounds or so, about 1,700 (3.3%) were called active. Rule as the data show it: active = survival mostly below about 52% (no sharp cut-off); inactive = mostly above about 56%. The list shows a part of the results.

test system: Wild type; test: S. aureus survival, RN4220 and DeltatarO strains – OD600, teichoic acid synthesis inhibitors, primary screen (AID 463173); conditions: S. aureus RN4220 wild type/DeltatarO growth, OD600, 18 h, hits give low values, screened at 18.75 µg/mL (by protocol)

| SMILES | survival |
| --- | --- |
| CC1=C(C(=O)Nc2cccnc2)C(c2ccc(C)cc2)n2nc(SCc3ccccc3F)nc2N1 (stereo unspecified) | inactive: 84% |
| CNS(=O)(=O)c1cn(CC(=O)N2CCN(c3ccc(C(C)=O)cc3)CC2)cc1S(=O)(=O)NC | active: 10% |
| Cc1ccc(NC(=O)C(CC(C)C)N2Cc3ccccc3C2=O)cc1F (stereo unspecified) | active: -6% |
| CN1CCN(c2nc(C#N)c(C#N)nc2C(C#N)=C2Nc3ccccc3N2)CC1 | inactive: 102% |
| Cc1ccc(-n2ncc(C(=O)NCc3ccc4c(c3)OCO4)c2C2CCN(C(=O)OC(C)(C)C)CC2)c(C)c1 | inactive: 81% |
| COc1ccc(CCNC(=O)CSc2cn(CCNC(=O)c3c(F)cccc3F)c3ccccc23)cc1OC | inactive: 68% |
| CN(C)c1ccc(NC(=O)Cn2c(SCc3ccc(F)cc3)nc3ccncc32)cc1 | inactive: 98% |
| COC(=O)c1ccc(NC(=O)c2cc(S(=O)(=O)N3CCOCC3)cn2C)cc1 | inactive: 84% |
| Cc1ccccc1OCC(=O)Nc1ccc(S(=O)(=O)N(Cc2ccccc2)c2ccccc2)cc1 | inactive: 82% |
| CC(=O)Nc1ccc(NS(=O)(=O)c2c(C(=O)N3CCCCCC3)c(C)n(C)c2C)cc1 | inactive: 65% |
| Cc1ccc(C(=O)COC(=O)CCC(=O)Nc2ccc(Oc3ccccc3)cc2)cc1 | inactive: 90% |
| COc1ccc(Cn2c(=O)c3oc4ccccc4c3n(CC(=O)Nc3c(C)cccc3C)c2=O)cc1 | inactive: 89% |
| NC(=O)c1ccc(NC(=O)c2ccccc2C(=O)O)cc1 | inactive: 112% |
| COc1ccc(-c2nc3c(c(SCc4ccc(Br)cc4)n2)Cc2c(CO)cnc(C)c2O3)cc1 | inactive: 88% |
| Cc1ccc(OCCSc2nnc(-c3cccs3)o2)cc1 | inactive: 77% |
| Cc1oc2cc3oc(=O)c(CCC(=O)NCCc4ccccc4F)c(C)c3cc2c1C | inactive: 113% |
| CCC(=O)N1c2ccccc2CC1C(=O)NCc1ccc(CC)cc1 (stereo unspecified) | inactive: 143% |
| COc1cccc(NC(=O)CCN2CC(C)CC(C)C2)c1 (stereo unspecified) | inactive: 111% |
| CNC(=S)N1CCN(c2nc3ccccc3s2)CC1 | inactive: 108% |

| SMILES | survival |
| --- | --- |
| CN1CCN(C(=O)c2cnn(-c3ccc(F)cc3F)c2C2CCN(C(=O)OC(C)(C)C)CC2)CC1 | inactive: 87% |
| COc1ccc(NC(=O)Nc2nnc(N3CCCC3)s2)cc1 | inactive: 80% |
| Cc1cc(C)cc(N(CC(=O)NCCc2ccc(Cl)cc2)S(=O)(=O)c2c(C)noc2C)c1 | inactive: 85% |
| Cc1ccc2c(c1)c1c(c(=O)n(-c3ccccc3)c(=O)n1Cc1ccccc1C)n2C | inactive: 68% |
| Cc1ccc(NC(=O)c2c(C)oc3ccc(O)c(CN4CCOCC4)c23)cc1 | inactive: 81% |
| Cc1ccc2c(=O)cc(C(=O)N(Cc3ccc(C(C)(C)C)cc3)C3CCS(=O)(=O)C3)oc2c1 (stereo unspecified) | inactive: 68% |
| Oc1ccc(-c2nc3ccc(Cl)cn3c2Nc2ccc(Cl)cc2)cc1 | inactive: 20% |
| CCOC(=O)/C(C#N)=C\c1ccc(N(C)C)cc1 | inactive: 123% |
| O=C(c1cc2c(Cl)nc3ccccc3c2s1)N1CCCCC1 | inactive: 58% |
| Cc1ccccc1NC(=O)Cn1nc(-c2ccccc2)nc(Cc2ccccc2)c1=O | inactive: 70% |
| Cc1ccc(CNS(=O)(=O)c2cnc(N)nc2)cc1 | inactive: 81% |
| COc1ccc(Cn2ccc3nc(C)c(C(=O)NCc4ccc(SC)cc4)cc3c2=O)cc1 | inactive: 79% |
| CCc1ccc2ncc3c(-c4ccc(C)cc4)nn(CC(=O)NCc4ccccc4)c3c2c1 | inactive: 65% |
| COc1ccc(CNC(=O)CSc2nnc(C)c3c(C)n(-c4ccccc4)nc23)c(OC)c1 | inactive: 81% |
| COc1ccc(Nc2nc(Cl)nc(NCCO)n2)cc1 | inactive: 107% |
| O=C(CSc1nc2ccccc2n1Cc1cccc(F)c1)NCc1ccccc1 | inactive: 72% |
| COc1ccc(-c2nc3sc(CCNC(=O)C(=O)Nc4ccc(OC)c(OC)c4)c(C)n3n2)cc1 | inactive: 69% |
| COc1ccc(Br)cc1Cn1nnc(C(=O)Nc2cccc(SC)c2)c1N | inactive: 68% |
| Cc1ccccc1Cn1c2ccccc2c2cnn(CC(=O)NC3CCCCCC3)c(=O)c21 | inactive: 88% |

| SMILES | survival |
| --- | --- |
| CC(C)CCNC(=O)Cn1nc(N2CCN(c3ccccc3)CC2)ccc1=O | inactive: 70% |
| CCOC(=O)c1sc2ncn(CC(=O)Nc3ccc(OC)c(Cl)c3)c(=O)c2c1C | inactive: 78% |
| CN(CC(=O)Nc1cccc(F)c1)S(=O)(=O)c1ccc2c(c1)n(C)c(=O)c(=O)n2C | inactive: 100% |
| CN1CCN(C(=O)c2ccc3c(c2)N(Cc2ccc(C(F)(F)F)cc2)C(=O)c2ccccc2S3)CC1 | inactive: 99% |
| Cc1ccc(NC(=O)c2ccc(CN3CC(=O)N4CCCCC4C3=O)cc2)c(Cl)c1 (stereo unspecified) | inactive: 133% |
| COc1ccc(S(=O)(=O)NCc2nc(-c3ccccc3)no2)cc1 | inactive: 77% |
| CSc1cccc(NC(=O)c2cc3c(COC(C)=O)cnc(C)c3oc2=O)c1 | inactive: 134% |
| CC(=O)c1cccc(NC(=O)CSc2ncc3c(n2)-c2cc(Cl)ccc2N(Cc2ccccc2)S3(=O)=O)c1 | inactive: 63% |
| COc1cc(CNC(=O)c2cc3n(n2)CCCN(Cc2cccc(F)c2)C3=O)cc(OC)c1OC | inactive: 71% |
| NC(=O)C1CCN(C(=O)CC(c2ccccc2)c2ccccc2)CC1 | inactive: 104% |
| O=C(CC(c1cccs1)N1Cc2ccccc2C1=O)Nc1ccc(F)cc1 (stereo unspecified) | inactive: 91% |
| COc1ccc(-n2nc3c(N4CCCC(C(=O)NCc5ccccc5C)C4)nnc(C)c3c2C)cc1 (stereo unspecified) | inactive: 72% |
| O=C(NCCn1cc(SCc2ccc(C(F)(F)F)cc2)c2ccccc21)c1cccs1 | inactive: 108% |
| N#CCOc1nc(OCC#N)nc(OCC#N)n1 | active: -1% |
| Cc1nnc(SCC(=O)NCc2cccc(F)c2)c2nn(-c3ccccc3)c(C)c12 | inactive: 76% |
| Cc1cccc(NC(=O)CSc2nc(=O)n(CCN3CCOCC3)c3c2CCC3)c1 | inactive: 88% |
| CNC(=O)C1CCC(Cn2c(=O)c3sccc3n(CC(=O)Nc3ccc(C)cc3C)c2=O)CC1 (stereo unspecified) | inactive: 79% |
| Cc1ccc2nc(-c3ccc(N4CCOCC4)cc3)c(Nc3ccccc3C)n2c1 | inactive: 73% |
